Reference: PubChem BioAssay AID1347073 (National Center for Advancing Translational Sciences (NCATS), 2019)
The campaign covered roughly 45,000 compounds. About 200 (0.44%) were called active. About 7% were inconclusive and are not listed. Calls follow the shape of the dose curve; as a rule, active = well fitted activation curve with a large enough effect; inconclusive = small, poorly fitted or top-dose-only effect; inactive = no such curve, though single readings can be large or run the other way. The list shows a part of the results.

Test: qHTS of TDP-43 Inhibitors: NCGC Sytravon Library Screen; also: nearly all actives have a fitted effect of over 55% in size; as to growth rescue (activation): 0% is about no effect
Settings: yeast TDP-43 toxicity rescue, BacTiter-Glo growth, 24 h; series mostly up to 46.1 µM; growth rescue (activation): at the top concentration
Procedure, shortened: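 TDP-43-expressing yeast, pregrown in raffinose, seeded at OD600 0.02 in galactose medium with compound for 24 hr at 30 deg C. Growth read by BacTiter-Glo luminescence, so rescue of toxicity appears as activation.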
Potency is read from the fitted curve at half-maximal effect.

| Compound | growth rescue (activation) | Potency |
| --- | --- | --- |
| Cc1ccc(C(=O)COC(=O)C2CCC2)cc1 | inactive: -12.6% |  |
| O=C(NCCc1ccccc1)C1CCC(=O)N1CCc1ccccc1 (stereo not drawn) | inactive: 12.1% |  |
| CN(C(=O)c1cc(S(=O)(=O)N2CCOCC2)cs1)c1ccccc1 | inactive: 3.35% |  |
| CN(C)CCCC(=O)c1ccc2c(c1)OCO2 | inactive: -2.25% |  |
| Cc1c(C(=O)NC(=S)NCC(C)C)oc2ccccc12 | inactive: 13.8% |  |
| Cc1ccc(-n2nc3c(=O)n(CC(=O)Nc4ccccc4F)nc(C)c3c2C)c(C)c1 | inactive: 2.53% |  |
| COc1ccc(/C=C2\SC(=NCc3ccccc3)N(Cc3ccccc3)C2=O)cc1OC | inactive: 8.38% |  |
| Cc1c(Cl)c([N+](=O)[O-])nn1CC(=O)NCc1cccnc1 | inactive: 14.4% |  |
| Fc1ccc(CNCCC(Cc2ccccc2)c2ccco2)cc1 (stereo not drawn) | inactive: -1.87% |  |
| CSc1ccc(CN2CCC(CO)(Cc3ccc(Cl)cc3)CC2)cc1 | inactive: 0.3% |  |
| CCOc1ccccc1OCCCC(=O)Nc1cc(S(=O)(=O)N2CCOCC2)ccc1OC | inactive: 7.91% |  |
| COC(=O)c1ccc(C2C(C(=O)Nc3ccccc3C)=C(C)Nc3ncnn32)cc1 (stereo not drawn) | inactive: 12.5% |  |
| O=C(O)CCCNC(=O)c1nn(Cc2ccccc2)c(=O)c2ccccc12 | inactive: 0.0751% |  |
| CCOc1ccc(/C=N/NC(=O)CSc2n[nH]c(=O)[nH]c2=O)cc1OC | inactive: 4.63% |  |
| Cc1ccc(Nc2c(-c3ccc(N(C)C)cc3)nc3ncccn23)cc1 | inactive: 11.7% |  |
| Cc1cc(C)n(C(C)CNS(=O)(=O)c2ccccc2)n1 (stereo not drawn) | inactive: 3.22% |  |
| CC(C)=CCC/C(C)=C/C=N/NC(=O)c1cccc([N+](=O)[O-])c1 | inactive: 7.47% |  |
| O=S(=O)(Nc1ccccn1)c1cnc(Cl)c(Br)c1 | inactive: -6.26% |  |
| O=C(c1cc(-c2ccc(Cl)cc2Cl)on1)N1CCCCCC1 | inactive: -26.1% |  |
| CC(=O)Nc1cc(C(=O)N(C)Cc2ccco2)ccc1Sc1ccc(C)cc1 | inactive: 8.32% |  |
| CCC(=O)N1CCN(c2ccc(NC(=O)c3ccc4ccccc4c3)cc2)CC1 | inactive: -0.155% |  |
| COc1ccc(N/C=C\C(=O)c2ccc3c(c2)OCO3)cc1OC | inactive: 6.8% |  |
| Cc1ccc(S(=O)(=O)Nc2ccc(S(=O)(=O)Nc3nccs3)cc2)cc1C | inactive: 0.235% |  |
| CCOc1ccccc1NC(=O)N1CCCC1C(=O)NCc1cccs1 (stereo not drawn) | inactive: 14.7% |  |
| CCc1ccc(NC(=O)C(C)OC(=O)/C=C/c2ccc(O)c(OC)c2)cc1 (stereo not drawn) | inactive: -7.45% |  |
| COc1ccc(-c2cn3cccnc3n2)cc1F | inactive: 23% |  |
| Cc1ccc(NC(=O)C2CC(=O)Nc3nc4ccccc4n32)c(C)c1 (stereo not drawn) | inactive: -10.3% |  |

| Compound | growth rescue (activation) | Potency |
| --- | --- | --- |
| CC(C)Oc1ccc(CNC(=O)C2CCN(C(=O)c3sccc3-n3cccc3)CC2)cc1 | inactive: 9.14% |  |
| CC(C)(C)Nc1c(-c2ccc(O)cc2)nc2ccc(Cl)cn12 | inactive: 8.77% |  |
| OC(c1cccc(Cl)c1)c1ncc(-c2cccc3ccccc23)[nH]1 (stereo not drawn) | inactive: -12.7% |  |
| O=C(CN1C(=O)C(=O)N(Cc2ccco2)C1=O)Nc1ccccc1 | inactive: 20% |  |
| O=C(c1cc(S(=O)(=O)N2CCOCC2)c(Cl)cc1Cl)N1CCCC1 | inactive: 0.337% |  |
| Cc1ccc(CNC(=O)COC(=O)[C@@H]2CC(O)CN2S(=O)(=O)c2ccc3c(c2)OCCO3)cc1 (stereo partly drawn) | inactive: 0.161% |  |
| O=C(CNS(=O)(=O)c1cccs1)N1CCCCC1 | inactive: 2.07% |  |
| O=C(COc1nc2ccccc2nc1N1CCOCC1)N1CCc2ccccc21 | inactive: 20.4% |  |
| O=C(Nc1ccc(F)cc1)C(Cc1ccccc1)n1cccc1 (stereo not drawn) |  | active: 12.6 µM |
| O=C(COc1ccc(-n2cnnn2)cc1)Nc1ccc(Br)cc1F | inactive: 28.4% |  |
| CCOCCOC(=O)c1ccc(NC(=O)c2cc3ccccc3o2)cc1 | inactive: 12.1% |  |
| O=C(CC1C(=O)NCCN1CC1CCCCC1)NCCCN1CCOCC1 (stereo not drawn) | inactive: 19.6% |  |
| Cc1ccc(OCC(=O)NCCNC(=O)c2ccccn2)cc1 | inactive: 0.0582% |  |
| CCCCn1c(=O)[nH]c(=O)c2c1nc(-c1ccccc1F)n2Cc1ccccc1 | inactive: 15.3% |  |
| COc1ccc(-n2ccc(=O)c3c2CCCC3=O)cc1 | inactive: -0.581% |  |
| CCCCCCNC(=O)C(C#N)c1nc2ccccc2nc1N1CCOCC1 (stereo not drawn) | inactive: -13.2% |  |
| COc1ccc(Br)cc1/C=N/NC(=O)CN1CCN(Cc2ccccc2)CC1 | inactive: -11.9% |  |
| CC(C)N1C/C(=C/c2ccsc2)C(=O)/C(=C/c2ccsc2)C1 | inactive: -10.4% |  |
| COc1cc(NC(=O)CN(C)Cc2ccc(OC(F)F)cc2)c(C)cc1[N+](=O)[O-] | inactive: -0.346% |  |
| Cc1sc2nc(SCC(=O)N(C)c3ccccc3)n(C)c(=O)c2c1C | inactive: -3.9% |  |
| Cc1ccc2c(c1)N(CC(=O)N1CCN(c3ccccc3)CC1)C(=O)C(C)O2 (stereo not drawn) | inactive: 26.2% |  |
| Cc1nnc(SCC(=O)Nc2cc(S(C)(=O)=O)ccc2Cl)n1Cc1ccccc1 | inactive: 3.91% |  |
| Cc1ccc(Cn2nnc3c(=O)[nH]c(C4CCN(S(=O)(=O)/C=C/c5ccccc5)CC4)nc32)cc1 | inactive: 10.8% |  |
| Cc1ccccc1C1CCCN(Cc2nc(CC3CC3)no2)C1 (stereo not drawn) | inactive: 16.9% |  |
| CCCC(=O)Nc1ccc(C(=O)Nc2ccc([N+](=O)[O-])cc2OC)cc1 | inactive: 0.498% |  |
| COCCCNC(=S)N1CCN(C(c2ccccc2)c2ccccc2)CC1 | inactive: 1.33% |  |
